The results in this text go back to a collection of fitness landscapes (doi:10.1016/j.celrep.2020.107928).

In all, about 81,000 sequences were measured (“one-hybrid fitness for binding parS DNA”: median about -0.17, highest 2% from about 0.51 on). The list shows a part of the results.

The labels stand for the following.
B1: Caulobacter ParB omega fusion; a variant is named by its letters at X, in order, B8GW30 (parent)
chain: MESVVVGEPGMSEGRRGLGRGLSALLGEVDAAPAQAPGEQLGGSREAPIEILQRNPDQPRRTFREEDLEDLSNSIREKGVLQPILVRPSPDTAGEYQIVAGERAWRAAQRAGLKTVPIMVRELDDLAVLEIGIIENVQRADLNVLEEALSYKVLMEKFERTQENIAQTIGKSXSHVANXMRLLXLPDEVQSYLVSGELTAXHARAIAAAADPVALAKQIIEGGLSVRETEALARKAPNLSAGKSKGGRPPRVKDTDTQALESDLSSVLGLDVSIDHRGSTGTLTITYATLEQLDDLCNRLTRGI

This assay covers variants of B1. Briefly: one-hybrid fitness for binding parS DNA (scaled: cognate 1, non-cognate 0); higher = stronger binding. The conditions noted are these: with parS DNA site. The gist of the method:
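In E. coli USO, a HIS3 reporter with its site placed 19 bp from the promoter was used to select Caulobacter ParB variants randomised at four specificity codons. Growth lasted 48 hours at 37°C on histidine-free M9 containing 0.1 mM IPTG and 5 mM 3-AT. Fitness was taken as the log change in variant-to-wild-type read ratio from Illumina sequencing of pre- and post-selection plasmids, rescaled between the non-cognate and cognate sites.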
Take PLKQ: the “one-hybrid fitness for binding parS DNA” value was no more than 0.2. Then RRGS, with 0.639.

In the case of MLQM, the “one-hybrid fitness for binding parS DNA” value is no more than 0.2.

As for GQGS, the “one-hybrid fitness for binding parS DNA” value is no more than 0.2.

Turning to QQLF, the “one-hybrid fitness for binding parS DNA” value is no more than 0.2. Then DGTW, with no more than 0.2; and PQVQ, with no more than 0.2. Then RPIT, with no more than 0.2. As for STRM, the figure is no more than 0.2; as for QMVN, no more than 0.2. For VMTM, the “one-hybrid fitness for binding parS DNA” value is no more than 0.2.

As to LANF, the “one-hybrid fitness for binding parS DNA” value is no more than 0.2. As for KPWR, the figure is no more than 0.2. Consider TDLE, for which the “one-hybrid fitness for binding parS DNA” value is no more than 0.2. With EQSC, the “one-hybrid fitness for binding parS DNA” value is no more than 0.2. Regarding CMYR, the “one-hybrid fitness for binding parS DNA” value was no more than 0.2. Consider HSSH, for which the “one-hybrid fitness for binding parS DNA” value is no more than 0.2. Then LWVS, with no more than 0.2. VVKF: the “one-hybrid fitness for binding parS DNA” value is no more than 0.2. As for CIRR, the figure is no more than 0.2; as for PYIV, no more than 0.2.

As to ACPV, the “one-hybrid fitness for binding parS DNA” value is no more than 0.2. Then KRPC, with no more than 0.2; and TEVA, with no more than 0.2.

For the variant WSGT, the “one-hybrid fitness for binding parS DNA” value is no more than 0.2.

As to ATNV, the “one-hybrid fitness for binding parS DNA” value was no more than 0.2. Consider GHAF, for which the “one-hybrid fitness for binding parS DNA” value is no more than 0.2. As for GMPR, the “one-hybrid fitness for binding parS DNA” value is no more than 0.2. Then GNRY, with no more than 0.2; and SYWG, with no more than 0.2. As for RMVT, the figure is 0.875; as for RCIC, 0.906. Then PKTF, with no more than 0.2. Consider AYAW, for which the “one-hybrid fitness for binding parS DNA” value is no more than 0.2. Turning to TCVG, the “one-hybrid fitness for binding parS DNA” value is no more than 0.2. As for PARP, the figure is no more than 0.2; as for YRAA, no more than 0.2; as for REIP, no more than 0.2. Regarding GPKH, the “one-hybrid fitness for binding parS DNA” value was no more than 0.2. Then YGRD, with no more than 0.2; and RDVG, with no more than 0.2. Regarding IDDD, the “one-hybrid fitness for binding parS DNA” value is no more than 0.2. Then KNGM, with no more than 0.2; and RPET, with no more than 0.2; and PRHQ, with no more than 0.2. As for TTFL, the figure is no more than 0.2; as for RAYL, no more than 0.2. As for TNGT, the figure is no more than 0.2; as for NLMT, no more than 0.2; as for RRHP, no more than 0.2. Take HHYW: the “one-hybrid fitness for binding parS DNA” value was no more than 0.2. As for KQEC, the figure is no more than 0.2; as for GFYR, no more than 0.2. As for KDYT, the “one-hybrid fitness for binding parS DNA” value was no more than 0.2. Then ELHV, with no more than 0.2; and KRSF, with no more than 0.2. Turning to LNLK, the “one-hybrid fitness for binding parS DNA” value was no more than 0.2. As to QNHT, the “one-hybrid fitness for binding parS DNA” value was no more than 0.2. Then SDEC, with no more than 0.2; and LLSF, with no more than 0.2; and GTIG, with no more than 0.2. Then PKLW, with no more than 0.2. Then QMIV, with no more than 0.2; and IPPG, with no more than 0.2; and GPTY, with no more than 0.2.

On to VVSS, for which the “one-hybrid fitness for binding parS DNA” value is no more than 0.2. As to YVTY, the “one-hybrid fitness for binding parS DNA” value was no more than 0.2. Consider YIDA, for which the “one-hybrid fitness for binding parS DNA” value is no more than 0.2.

ALKF: the “one-hybrid fitness for binding parS DNA” value is no more than 0.2.

In the case of HSPD, the “one-hybrid fitness for binding parS DNA” value is no more than 0.2. As for GWSS, the figure is no more than 0.2.

Regarding QRNH, the “one-hybrid fitness for binding parS DNA” value is no more than 0.2. Regarding APRI, the “one-hybrid fitness for binding parS DNA” value is no more than 0.2. As for CICK, the figure is no more than 0.2. PTSS: the “one-hybrid fitness for binding parS DNA” value was no more than 0.2.

Turning to RIHF, the “one-hybrid fitness for binding parS DNA” value was no more than 0.2. In the case of QVAI, the “one-hybrid fitness for binding parS DNA” value is no more than 0.2. As for GSMP, the figure is no more than 0.2; as for QNHD, no more than 0.2; as for EYRG, no more than 0.2.

Consider HLAD, for which the “one-hybrid fitness for binding parS DNA” value was no more than 0.2.

For QAYH, the “one-hybrid fitness for binding parS DNA” value is no more than 0.2. As for RWQE, the figure is no more than 0.2.

Regarding RRRT, the “one-hybrid fitness for binding parS DNA” value came out at 0.597.
